# The supplement of paper PMC8512760
# Some of the results follow. Most values come without repeats; read them as rough.
# System: SUM-149
# Assay: cell viability relative to vehicle (% of vehicle); basal-like triple-negative breast cancer lines; higher = less cytotoxic
# Conditions: 10 µM; 72 h
# 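Also: stably firefly luciferase-GFP labeled cells in 96-well plates, viability read as luciferase photon flux after d-luciferin addition, treated wells normalized to vehicle wells, single-dose high-throughput screen.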
row,SMILES,cell viability
1,CC(=O)OCC(=O)C1CCC2C3CCC4=CC(=O)CCC4(C)C3CCC12C (stereo not given) [Deoxycorticosterone acetate],108
2,OCC1OC(O)C(O)C(O)C1O [Dextrose (D-glucose)],105
3,CC(=O)Oc1ccccc1C(=O)Nc1ncc([N+](=O)[O-])s1 [Nitazoxanide],146
4,CCCCOc1ccc(OCCCN2CCOCC2)cc1.Cl [Pramoxine HCl],123
5,Nc1ccn(C2OC(CO)C(O)C2(F)F)c(=O)n1 (stereo not given) [Gemcitabine],136
